# Measured values as given in the supplement of paper PMC8728848.
# The list shows a part of the results.
# B1: DGL (Dioclea grandiflora), P08902 (protein)
# chain: ADTIVAVELDSYPNTDIGDPNYPHIGIDIKSIRSKSTARWNMQTGKVGTVHISYNSVAKRLSAVVSYSGSSSTTVSYDVDLNNVLPEWVRVGLSATTGLYKETNTILSWSFTSKLKTNSIADENSLHFSFHKFSQNPKDLILQGDAFTDSDGNLELTKVSSSGDPQGNSVGRALFYAPVHIWESSAVVASFDATFTFLIKSPDREPADGITFFIANTDTSIPSGSGGRLLGLFPDAN
# Experiments:
# Assay in all cases: glycan array binding signal (z-score within array); higher = stronger binding
# Conditions in all cases: glycan notation: IUPAC condensed, linker removed
# Fuc(a1-2)Gal = target: Fuc(a1-2)Gal
# In short: (§1)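 The Consortium for Functional Glycomics database supplied 3228 glycan arrays, of which those lacking an available protein sequence were dropped. The binding signal, a within-array Z-score, was averaged across arrays of the same protein sequence and across linkers. Negative scores can be read as non-binding.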
# Fuc(a1-2)Gal(b1-3)GalNAc = target: Fuc(a1-2)Gal(b1-3)GalNAc
# In short: as §1
# [1] = target: Fuc(a1-2)Gal(b1-3)GalNAc(b1-3)Gal
# In short: as §1
# [2] = target: Fuc(a1-2)Gal(b1-3)GalNAc(b1-3)Gal(a1-4)Gal(b1-4)Glc
# In short: as §1
# [3] = target: Fuc(a1-2)Gal(b1-3)GalNAc(b1-4)[Neu5Ac(a2-3)]Gal(b1-4)Glc
# In short: as §1
# Fuc(a1-2)Gal(b1-3)GlcNAc = target: Fuc(a1-2)Gal(b1-3)GlcNAc
# In short: as §1
# [4] = target: Fuc(a1-2)Gal(b1-3)GlcNAc(b1-2)Man(a1-3)[Fuc(a1-2)Gal(b1-3)GlcNAc(b1-2)Man(a1-6)]Man(b1-4)GlcNAc(b1-4)GlcNAc
# In short: as §1
# [5] = target: Fuc(a1-2)Gal(b1-3)GlcNAc(b1-3)Gal(b1-4)Glc
# In short: as §1
# [6] = target: Fuc(a1-2)Gal(b1-3)GlcNAc(b1-3)[Gal(b1-4)[Fuc(a1-3)]GlcNAc(b1-6)]Gal(b1-4)Glc
# In short: as §1
# [7] = target: Fuc(a1-2)Gal(b1-3)[Fuc(a1-4)]GlcNAc
# In short: as §1
# [8] = target: Fuc(a1-2)Gal(b1-3)[Fuc(a1-4)]GlcNAc(b1-2)Man(a1-3)[Fuc(a1-2)Gal(b1-3)[Fuc(a1-4)]GlcNAc(b1-2)Man(a1-6)]Man(b1-4)GlcNAc(b1-4)GlcNAc
# In short: as §1
# Fuc(a1-2)Gal(b1-4)Glc = target: Fuc(a1-2)Gal(b1-4)Glc
# In short: as §1
# Fuc(a1-2)Gal(b1-4)Glc6S = target: Fuc(a1-2)Gal(b1-4)Glc6S
# In short: as §1
# Fuc(a1-2)Gal(b1-4)GlcNAc = target: Fuc(a1-2)Gal(b1-4)GlcNAc
# In short: as §1
# [9] = target: Fuc(a1-2)Gal(b1-4)GlcNAc(b1-2)Man(a1-3)[Fuc(a1-2)Gal(b1-4)GlcNAc(b1-2)Man(a1-6)]Man(b1-4)GlcNAc(b1-4)GlcNAc
# In short: as §1
# [10] = target: Fuc(a1-2)Gal(b1-4)GlcNAc(b1-3)Gal(b1-4)GlcNAc
# In short: as §1
# [11] = target: Fuc(a1-2)Gal(b1-4)GlcNAc(b1-3)Gal(b1-4)GlcNAc(b1-3)Gal(b1-4)GlcNAc
# In short: as §1
# [12] = target: Fuc(a1-2)Gal(b1-4)GlcNAc6S
# In short: as §1
# [13] = target: Fuc(a1-2)Gal(b1-4)[Fuc(a1-3)]GlcNAc
# In short: as §1
# [14] = target: Fuc(a1-2)Gal(b1-4)[Fuc(a1-3)]GlcNAc(b1-2)Man(a1-3)[Fuc(a1-2)Gal(b1-4)[Fuc(a1-3)]GlcNAc(b1-2)Man(a1-6)]Man(b1-4)GlcNAc(b1-4)GlcNAc
# In short: as §1
# [15] = target: Fuc(a1-2)Gal(b1-4)[Fuc(a1-3)]GlcNAc(b1-3)Gal(b1-4)[Fuc(a1-3)]GlcNAc
# In short: as §1
# [16] = target: Fuc(a1-2)Gal(b1-4)[Fuc(a1-3)]GlcNAc(b1-3)Gal(b1-4)[Fuc(a1-3)]GlcNAc(b1-3)Gal(b1-4)[Fuc(a1-3)]GlcNAc
# In short: as §1
# Fuc(a1-2)Gal6S(b1-4)Glc = target: Fuc(a1-2)Gal6S(b1-4)Glc
# In short: as §1
# [17] = target: Fuc(a1-2)Gal6S(b1-4)Glc6S
# In short: as §1
# [18] = target: Fuc(a1-2)Gal6S(b1-4)GlcNAc
# In short: as §1
# Fuc(a1-2)[Gal(a1-3)]Gal = target: Fuc(a1-2)[Gal(a1-3)]Gal
# In short: as §1
# [19] = target: Fuc(a1-2)[Gal(a1-3)]Gal(b1-3)GlcNAc
# In short: as §1
# [20] = target: Fuc(a1-2)[Gal(a1-3)]Gal(b1-3)GlcNAc(b1-2)Man(a1-3)[Fuc(a1-2)[Gal(a1-3)]Gal(b1-3)GlcNAc(b1-2)Man(a1-6)]Man(b1-4)GlcNAc(b1-4)GlcNAc
# In short: as §1
# [21] = target: Fuc(a1-2)[Gal(a1-3)]Gal(b1-4)Glc
# In short: as §1
# [22] = target: Fuc(a1-2)[Gal(a1-3)]Gal(b1-4)GlcNAc
# In short: as §1
# [23] = target: Fuc(a1-2)[Gal(a1-3)]Gal(b1-4)GlcNAc(b1-2)Man(a1-3)[Fuc(a1-2)[Gal(a1-3)]Gal(b1-4)GlcNAc(b1-2)Man(a1-6)]Man(b1-4)GlcNAc(b1-4)GlcNAc
# In short: as §1
# [24] = target: Fuc(a1-2)[Gal(a1-3)]Gal(b1-4)[Fuc(a1-3)]GlcNAc
# In short: as §1
# [25] = target: Fuc(a1-2)[Gal(a1-4)]Gal(b1-4)GlcNAc
# In short: as §1
# [26] = target: Fuc(a1-2)[GalNAc(a1-3)]Gal
# In short: as §1
# [27] = target: Fuc(a1-2)[GalNAc(a1-3)]Gal(b1-3)GlcNAc
# In short: as §1
# [28] = target: Fuc(a1-2)[GalNAc(a1-3)]Gal(b1-3)GlcNAc(b1-2)Man(a1-3)[Fuc(a1-2)[GalNAc(a1-3)]Gal(b1-3)GlcNAc(b1-2)Man(a1-6)]Man(b1-4)GlcNAc(b1-4)GlcNAc
# In short: as §1
# [29] = target: Fuc(a1-2)[GalNAc(a1-3)]Gal(b1-4)Glc
# In short: as §1
# [30] = target: Fuc(a1-2)[GalNAc(a1-3)]Gal(b1-4)GlcNAc
# In short: as §1
# [31] = target: Fuc(a1-2)[GalNAc(a1-3)]Gal(b1-4)GlcNAc(b1-2)Man(a1-3)[GalNAc(a1-3)[Fuc(a1-2)]Gal(b1-4)GlcNAc(b1-2)Man(a1-6)]Man(b1-4)GlcNAc(b1-4)GlcNAc
# In short: as §1
# [32] = target: Fuc(a1-2)[GalNAc(a1-3)]Gal(b1-4)GlcNAc(b1-3)Gal(b1-4)GlcNAc
# In short: as §1
# [33] = target: Fuc(a1-2)[GalNAc(a1-3)]Gal(b1-4)GlcNAc(b1-3)Gal(b1-4)GlcNAc(b1-3)Gal(b1-4)GlcNAc
# In short: as §1
# [34] = target: Fuc(a1-2)[GalNAc(a1-3)]Gal(b1-4)[Fuc(a1-3)]GlcNAc
# In short: as §1
# [35] = target: Fuc(a1-2)[GalNAc(a1-4)]Gal(b1-4)GlcNAc
# In short: as §1
# [36] = target: Fuc(a1-2)[GalNAc(b1-3)]Gal
# In short: as §1
# Fuc(a1-3)GlcNAc = target: Fuc(a1-3)GlcNAc
# In short: as §1
# [37] = target: Fuc(a1-3)[Gal(b1-4)]Glc6S
# In short: as §1
# [38] = target: Fuc(a1-3)[Gal(b1-4)]GlcNAc
# In short: as §1
# [39] = target: Fuc(a1-3)[Gal(b1-4)]GlcNAc(b1-2)Man(a1-3)[Fuc(a1-3)[Gal(b1-4)]GlcNAc(b1-2)Man(a1-6)]Man(b1-4)GlcNAc(b1-4)GlcNAc
# In short: as §1
# [40] = target: Fuc(a1-3)[Gal(b1-4)]GlcNAc(b1-2)Man(a1-6)[Gal(b1-4)GlcNAc(b1-2)Man(a1-3)]Man(b1-4)GlcNAc(b1-4)GlcNAc
# In short: as §1
# [41] = target: Fuc(a1-3)[Gal(b1-4)]GlcNAc(b1-3)Gal(b1-3)[Fuc(a1-4)]GlcNAc
# In short: as §1
# [42] = target: Fuc(a1-3)[Gal(b1-4)]GlcNAc(b1-4)Gal(b1-4)[Fuc(a1-3)]GlcNAc
# In short: as §1
# [43] = target: Fuc(a1-3)[Gal(b1-4)]GlcNAc(b1-4)Gal(b1-4)[Fuc(a1-3)]GlcNAc(b1-4)Gal(b1-4)[Fuc(a1-3)]GlcNAc
# In short: as §1
# [44] = target: Fuc(a1-3)[Gal(b1-4)]GlcNAc6S
# In short: as §1
# [45] = target: Fuc(a1-3)[Gal3S(b1-4)]Glc6S
# In short: as §1
# [46] = target: Fuc(a1-3)[Gal3S(b1-4)]GlcNAc
# In short: as §1
# [47] = target: Fuc(a1-3)[Gal3S(b1-4)]GlcNAc6S
# In short: as §1
# [48] = target: Fuc(a1-3)[GalNAc(b1-4)]GlcNAc
# In short: as §1
# [49] = target: Fuc(a1-3)[Neu5Ac(a2-3)]Gal(b1-4)GlcNAc(b1-3)GalNAc
# In short: as §1
# Fuc(a1-4)GlcNAc = target: Fuc(a1-4)GlcNAc
# In short: as §1
# Fuc(b1-3)GlcNAc = target: Fuc(b1-3)GlcNAc
# In short: as §1
binder,measurement,setting,value
B1,glycan array binding signal (z-score),Fuc(a1-2)Gal,-0.163
same,glycan array binding signal (z-score),Fuc(a1-2)Gal(b1-3)GalNAc,-0.179
same,glycan array binding signal (z-score),[1],-0.166
same,glycan array binding signal (z-score),[2],-0.175
same,glycan array binding signal (z-score),[3],-0.179
same,glycan array binding signal (z-score),Fuc(a1-2)Gal(b1-3)GlcNAc,-0.175
same,glycan array binding signal (z-score),[4],-0.167
same,glycan array binding signal (z-score),[5],-0.177
same,glycan array binding signal (z-score),[6],-0.181
same,glycan array binding signal (z-score),[7],-0.175
same,glycan array binding signal (z-score),[8],-0.169
same,glycan array binding signal (z-score),Fuc(a1-2)Gal(b1-4)Glc,-0.18
same,glycan array binding signal (z-score),Fuc(a1-2)Gal(b1-4)Glc6S,-0.172
same,glycan array binding signal (z-score),Fuc(a1-2)Gal(b1-4)GlcNAc,-0.179
same,glycan array binding signal (z-score),[9],-0.185
same,glycan array binding signal (z-score),[10],-0.176
same,glycan array binding signal (z-score),[11],-0.179
same,glycan array binding signal (z-score),[12],-0.172
same,glycan array binding signal (z-score),[13],-0.176
same,glycan array binding signal (z-score),[14],-0.144
same,glycan array binding signal (z-score),[15],-0.182
same,glycan array binding signal (z-score),[16],-0.168
same,glycan array binding signal (z-score),Fuc(a1-2)Gal6S(b1-4)Glc,-0.158
same,glycan array binding signal (z-score),[17],-0.176
same,glycan array binding signal (z-score),[18],-0.173
same,glycan array binding signal (z-score),Fuc(a1-2)[Gal(a1-3)]Gal,-0.174
same,glycan array binding signal (z-score),[19],-0.18
same,glycan array binding signal (z-score),[20],-0.167
same,glycan array binding signal (z-score),[21],-0.177
same,glycan array binding signal (z-score),[22],-0.181
same,glycan array binding signal (z-score),[23],-0.17
same,glycan array binding signal (z-score),[24],-0.184
same,glycan array binding signal (z-score),[25],-0.182
same,glycan array binding signal (z-score),[26],-0.179
same,glycan array binding signal (z-score),[27],-0.164
same,glycan array binding signal (z-score),[28],-0.173
same,glycan array binding signal (z-score),[29],-0.174
same,glycan array binding signal (z-score),[30],-0.183
same,glycan array binding signal (z-score),[31],-0.184
same,glycan array binding signal (z-score),[32],-0.174
same,glycan array binding signal (z-score),[33],-0.174
same,glycan array binding signal (z-score),[34],-0.172
same,glycan array binding signal (z-score),[35],-0.174
same,glycan array binding signal (z-score),[36],-0.18
same,glycan array binding signal (z-score),Fuc(a1-3)GlcNAc,-0.177
same,glycan array binding signal (z-score),[37],-0.184
same,glycan array binding signal (z-score),[38],-0.162
same,glycan array binding signal (z-score),[39],-0.178
same,glycan array binding signal (z-score),[40],-0.184
same,glycan array binding signal (z-score),[41],-0.182
same,glycan array binding signal (z-score),[42],-0.181
same,glycan array binding signal (z-score),[43],-0.182
same,glycan array binding signal (z-score),[44],-0.172
same,glycan array binding signal (z-score),[45],-0.182
same,glycan array binding signal (z-score),[46],-0.174
same,glycan array binding signal (z-score),[47],-0.169
same,glycan array binding signal (z-score),[48],-0.177
same,glycan array binding signal (z-score),[49],-0.072
same,glycan array binding signal (z-score),Fuc(a1-4)GlcNAc,-0.175
same,glycan array binding signal (z-score),Fuc(b1-3)GlcNAc,-0.178
